Assay results: PubChem BioAssay AID686978 (National Center for Advancing Translational Sciences (NCATS), 2013)
Values joined by “and” are separate entries in the source; they are usually repeats but may differ in a detail not shown here. Identical values can stand only once. In all, about 420,000 compounds went through this assay and about 64,000 (15%) were called active. The inconclusive results got no clear call from the source; some entries with a clear call stand among them for comparison. Calls follow the shape of the dose curve; as a rule, active = well fitted inhibition curve with a large enough effect; inconclusive = small, poorly fitted or top-dose-only effect; inactive = flat fitted curve, though single readings scatter. Potencies of inconclusive entries are left out as doubtful fits.

Test: qHTS for Inhibitors of human tyrosyl-DNA phosphodiesterase 1 (TDP1): qHTS in cells in absence of CPT; also: nearly all actives have a fitted effect of over 55% in size
Details: DT40 Tdp1-/- hTDP1 cells, no CPT, ATP luminescence, 48 h; activity change, negative = growth inhibition: at 46.2 µM (top of the series) unless noted
Procedure, shortened: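 Camptothecin absent (DMSO only). Human TDP1-complemented DT40 knockout cells, 400 cells/well, 37 °C for minimum 48 hr; ATP measured via CellTiter-Glo, 30 min dark incubation, luminescence.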
% is scaled to controls: 0 for no effect and ±100 for the full control effect; potency is read from the fitted curve at half-maximal effect; tags tell the direction and shape of the fitted curve.

SMILES	Potency	activity change, negative = growth inhibition
CCOc1ccc(N2C(=O)NC(=O)/C(=C\c3ccc(N4CCOCC4)cc3C)C2=O)cc1	inconclusive [inhibitor, full curve, poor fit]	–
CC(=O)C1(O)CCC2C3CCC4=C(Cl)C(=O)CCC4(C)C3CCC21C (stereo not given)	inconclusive [inhibitor, single point]	–
NCC(=O)c1cccc([N+](=O)[O-])c1	inconclusive [inhibitor, partial curve, poor fit]	–
Cc1ccc(Cl)cc1N1CCN(CCN)CC1	inconclusive [inhibitor, partial curve, poor fit]	–
CCC(C)n1c(O)c(C=Nc2cccc(C(F)(F)F)c2)c(=O)[nH]c1=S (stereo not given)	inactive	–
O=C(Nc1ccc(OC(F)(F)F)cc1)Oc1ccccc1N1CCCCC1	inconclusive [inhibitor, single point]	–
COc1ccccc1NC(=O)N(Cc1ccc2c(c1)OCO2)C1CCN(Cc2ccccc2)CC1	active: 5.17 µM	–
O=C1NC(=O)N(Cc2ccco2)C(=O)/C1=C/c1ccc(-c2cccc([N+](=O)[O-])c2)o1	inconclusive [inhibitor, single point]	–
O=C(c1ccccc1F)c1cn(Cc2ccccc2)c2ccccc12	inconclusive [inhibitor, single point]	–
CC(C)CN1Cc2cc(-c3cccc(F)c3)ccc2-n2nncc2C1	inconclusive [inhibitor, single point]	–
Cc1ccc2c(c1)C1CN(C)CCC1N2C(=O)c1ccco1 (stereo not given)	inactive	–
CN[C@@H]1C[C@@H](c2ccc(Cl)c(Cl)c2)c2ccccc21	active: 11.9 µM	–
COC(=O)C1=C(c2cccc(OC)c2OC)C[C@@H]2CC[C@H]1N2C(=O)N1CCC(O)CC1	inactive	–
CCCCC(CC)COCCCN=Cc1c(O)[nH]c(=S)[nH]c1=O (stereo not given)	inconclusive [inhibitor, single point]	–
O=C(O)Cc1cccnc1C(=O)O	inactive	–
C#CC[N+]1(C)[C@@H]2CC(OC(=O)C(CO)c3ccccc3)C[C@H]1C(O)C2 (stereo not given in full)	inactive	–
O=c1nc(/C=C/c2ccc(Cl)cc2Cl)cc(C(F)(F)F)[nH]1	inconclusive [inhibitor, partial curve]	–
CCCN(CC1CC1)CC(O)c1ccccc1 (stereo not given)	active: 18.4 µM	–
Cc1ccc(NC(=O)C2CCCN2S(=O)(=O)c2ccc3c(c2)CCCC(=O)N3)cc1Cl (stereo not given)	inconclusive [inhibitor, single point]	–
Fc1ccc(CN2CCN(c3ccc(Cl)cc3)CC2)cc1	inconclusive [inhibitor, single point]	–
CC1CCCN(CCCNC(=O)c2ccc3c(c2)N(Cc2cccc(Cl)c2)C(=O)c2ccccc2S3=O)C1 (stereo not given)	inconclusive [inhibitor, single point]	–
O=c1[nH]c(=S)[nH]c(O)c1N=Nc1ccc2c(c1)OCO2	inactive	–
C=CCN1C(=O)NC(=O)C(Cc2ccc(OC)c(OC)c2)C1=O (stereo not given)	inactive	–

SMILES	Potency	activity change, negative = growth inhibition
O=[N+]([O-])c1cc(O)c(O)c([N+](=O)[O-])c1	inconclusive [inhibitor, single point]	–
CCC(=NCCc1c[nH]c2ccccc12)c1c(O)n(-c2ccc(C)cc2)c(=O)[nH]c1=O	inconclusive [inhibitor, single point]	–
COc1ccc(OC)c(CN2C(=O)c3ccccc3C2c2nnnn2-c2c(C)cccc2C)c1 (stereo not given)	inconclusive [inhibitor, single point]	–
O=c1c2ccccc2nc(-c2ccoc2)n1-c1ccccc1Cl	active: 16.4 µM	–
Cc1cccnc1NC1=NCC(C)S1 (stereo not given)	inactive	–
O=[N+]([O-])c1ccc(-[n+]2c(-c3ccccc3)cc(-c3ccccc3)cc2-c2ccccc2)cc1	active: 20.6 µM	–
CCC1CCC(C)N(N=O)C1 (stereo not given)	inactive	–
Cc1ccc(C2CC(=O)C(C=NCCN3CCN(C(=O)Cc4ccccc4)CC3)=C(O)C2)cc1 (stereo not given)	–	inconclusive: -30.7% [inhibitor]
C=C(C=O)CC1CC(O)[C@]2(C)OC3C[C@@H]4OC5C[C@]6(C)O[C@]7(C)CCC8OC9C[C@]%10(C)OC(/C(C)=C\CO)C(O)CC%10OC9CC(C)C8OC7CC6O[C@]5(C)C/C=C\C4OC3CC2O1 (stereo not given in full)	inconclusive [inhibitor, single point]	–
Cc1cc(OC(=O)N(C)C)nc(SCc2c(Cl)cccc2Cl)n1	inconclusive [inhibitor, partial curve, poor fit]	–
CC1([N+](=O)[O-])COP(=O)(Nc2cccc(F)c2)OC1 (stereo not given)	inactive	–
Cc1ccc(Cl)cc1N1CCN(C(=O)C2CCN(Cc3nc(-c4ccc(Cl)cc4)oc3C)CC2)CC1	active: 14.6 µM	–
CCC(=O)OC1CCC2C3CCC4=CC(=O)CC[C@@]4(C)C3CC[C@]12C (stereo not given in full)	inconclusive [inhibitor, single point]	–
Cn1c(=O)oc2cc(S(=O)(=O)N3CCC(C(=O)Nc4ccc(OC(F)(F)F)cc4)CC3)ccc21	inconclusive [inhibitor, partial curve]	–
O=C(Cn1c(NCCCl)nc2ccccc21)c1ccc(Br)cc1	inconclusive [inhibitor, single point]	–
COC(=O)C1=C(c2ccc(OC(F)(F)F)cc2)C[C@@H]2CC[C@H]1N2C(=O)NCc1ccc(F)cc1	active: 20.6 µM	–
CNC(=O)Oc1ccc2c(c1)[C@@]1(C)CCN(C)C1N2C (stereo not given in full)	inactive	–
CCOc1cc2c(cc1OCC)-n1cccc1C(c1cccc(F)c1F)NC2 (stereo not given)	active: 23.1 µM	–
O=C1NC(=O)C(=Cc2ccccc2Oc2ccc(F)cc2)C(=O)N1	inconclusive [inhibitor, single point]	–
CCCCCCC[n+]1ccc(-c2cc[n+](CCCCCCC)cc2)cc1	active: 531 nM and active: 5.01 µM and active: 651 nM	–
O=C(O)c1ccc(NC(=O)N2C[C@H]3C[C@@H](C2)c2cccc(=O)n2C3)cc1	inactive	–
c1cc2c(cc1C1OC[C@@H]3C(c4ccc5c(c4)OCO5)OCC13)OCO2 (stereo not given in full)	inconclusive [inhibitor, single point]	–
